In PubChem BioAssay AID504332 (National Center for Advancing Translational Sciences (NCATS), 2011):
Several values for one entry are separate records, joined by “and”; a condition that tells them apart may be missing. Equal entries are not always repeated. Hit rate of the full screen: of about 350,000 compounds, about 31,000 (8.9%) were called active. This list was built around the results that the source calls inconclusive (neither active nor inactive); the mix of calls is not that of the screen. Calls come from the whole dose curve; as a rule, active = well fitted inhibition curve with a large enough effect; inconclusive = small, poorly fitted or top-dose-only effect; inactive = no such curve, though single readings can be large or run the other way. A potency beside an inconclusive call is a rough fit, not a confirmed value. More than one record can exist for a structure, and the calls need not agree.

Biological target: Histone-lysine N-methyltransferase EHMT2 (Homo sapiens) (UniProt Q96KQ7)
Assay: qHTS Assay for Inhibitors of Histone Lysine Methyltransferase G9a; note: nearly all actives have a fitted effect of over 75% in size
Details: G9a H3K9 monomethylation, AlphaScreen, 2 h; activity, negative = inhibition: at 59 µM (top of the series) unless noted
How it was run: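 Chemiluminescent proximity detection of H3K9 monomethylation, read after 10 min bead incubation in the dark. Reaction: 20 nM G9a, 500 nM biotin-H3K9 peptide, 20 uM SAM cofactor, 2 h, room temperature, following 15 min enzyme-compound preincubation.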
% is set by controls: 0 for no effect and ±100 for the full control effect; potency is the fitted concentration of half-maximal effect; tags give direction and shape of the fitted curve.

Sequence of UniProt Q96KQ7 (Q96KQ7 whole entry, looked up): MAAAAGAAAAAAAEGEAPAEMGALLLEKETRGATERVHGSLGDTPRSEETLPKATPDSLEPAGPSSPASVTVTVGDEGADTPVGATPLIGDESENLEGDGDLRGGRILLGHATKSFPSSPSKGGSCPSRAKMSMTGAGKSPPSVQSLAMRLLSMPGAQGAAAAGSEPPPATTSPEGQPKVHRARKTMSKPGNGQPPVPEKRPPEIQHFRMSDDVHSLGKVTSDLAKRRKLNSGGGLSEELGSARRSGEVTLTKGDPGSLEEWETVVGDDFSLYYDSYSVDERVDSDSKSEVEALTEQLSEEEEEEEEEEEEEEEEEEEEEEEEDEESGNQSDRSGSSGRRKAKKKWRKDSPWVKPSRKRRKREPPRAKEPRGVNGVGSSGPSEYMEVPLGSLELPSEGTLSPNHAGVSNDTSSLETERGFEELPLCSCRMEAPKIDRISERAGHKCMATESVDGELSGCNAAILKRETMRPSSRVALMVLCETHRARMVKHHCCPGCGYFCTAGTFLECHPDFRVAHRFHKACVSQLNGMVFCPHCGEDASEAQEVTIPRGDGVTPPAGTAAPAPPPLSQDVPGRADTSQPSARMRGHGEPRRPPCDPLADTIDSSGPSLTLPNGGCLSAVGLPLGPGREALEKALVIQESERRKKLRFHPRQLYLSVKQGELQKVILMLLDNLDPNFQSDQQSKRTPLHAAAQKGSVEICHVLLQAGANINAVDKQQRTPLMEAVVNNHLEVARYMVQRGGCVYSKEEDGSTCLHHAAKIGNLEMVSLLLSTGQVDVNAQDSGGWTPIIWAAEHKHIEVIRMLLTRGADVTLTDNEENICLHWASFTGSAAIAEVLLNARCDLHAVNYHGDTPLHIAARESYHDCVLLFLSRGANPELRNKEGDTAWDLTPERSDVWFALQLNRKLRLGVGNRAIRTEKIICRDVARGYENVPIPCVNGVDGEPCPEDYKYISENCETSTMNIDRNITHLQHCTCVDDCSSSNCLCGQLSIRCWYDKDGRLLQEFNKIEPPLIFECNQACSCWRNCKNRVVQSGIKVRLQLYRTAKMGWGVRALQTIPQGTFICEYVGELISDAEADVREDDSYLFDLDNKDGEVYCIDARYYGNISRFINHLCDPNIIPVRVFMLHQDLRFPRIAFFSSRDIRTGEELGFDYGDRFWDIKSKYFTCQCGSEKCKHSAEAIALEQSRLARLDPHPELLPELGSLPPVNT

Question: With `COc1cc(-n2ccnc2SC)c(Cl)cc1Cl` as the molecule, how does the “activity, negative = inhibition” value read?
Answer: inactive: 2.81%

Question: Which Potency does the source give for `CC(=O)N1CCN(C(=S)c2ccc(Cl)cc2)CC1` here?
Answer: active: 25.1 µM

Question: `CC(C)c1ccc2nc(N)sc2c1` was tested. Which Potency did it give?
Answer: inconclusive: 10 µM [inhibitor, partial curve, poor fit]

Question: With `O=C(CNc1ccc(F)cc1)c1ccccc1` as the molecule, how does the Potency read?
Answer: inconclusive: 35.5 µM [inhibitor, single point]

Question: For `CCn1nnnc1SCC(=O)c1ccc(C)cc1C`, which Potency is on record?
Answer: inconclusive: 7.94 µM [inhibitor, full curve, poor fit]

Question: How did the “activity, negative = inhibition” value turn out when `COc1ccc(CC(=O)NCCc2csc(-c3cccc(C)c3)n2)cc1` was run?
Answer: inactive: 8.16%

Question: With `Cc1ccc(C)c(Nc2nc(N)c3ccccc3n2)c1` as the molecule, how does the Potency read?
Answer: active: 50.1 µM

Question: How did the “activity, negative = inhibition” value turn out when `CCCCOC(=O)C1=C(C)Nc2ncnn2C1c1ccc(OCC)c(OC)c1` (stereo unspecified) was run?
Answer: inactive: 12%

Question: `CN(CC(=O)Nc1ccc(Cl)cc1)c1ccc(S(=O)(=O)N2CCCCC2)cc1[N+](=O)[O-]` was tested. Which Potency did it give?
Answer: inconclusive: 17.8 µM [inhibitor, full curve, poor fit]

Question: `Cc1c(C(=O)O)oc2ccc(S(=O)(=O)N3CCCC3)cc12` was tested. Which Potency did it give?
Answer: inconclusive: 44.7 µM [inhibitor, partial curve, poor fit]

Question: For `O=C1[C@@H]2Cc3c([nH]c4ccccc34)C(c3ccccc3)N2C(=O)CN1C1CCN(Cc2ccccc2)CC1` (stereo partly specified), which Potency is on record?
Answer: active: 79.4 µM

Question: `COc1cccc(/C=C/C(=O)c2ccc(C)c([N+](=O)[O-])c2)c1` was tested. Which Potency did it give?
Answer: inconclusive: 12.6 µM [inhibitor, partial curve, poor fit]

Question: How did the activity, negative = inhibition turn out when `Clc1cccc(CSc2nnc([C@@H]3CCCN3)o2)c1` was run?
Answer: inactive: 16% [at 0.501 µM]

Question: For `CC(C)CC(=O)Nc1ccc(Oc2ccc(NC(=O)CC(C)C)cc2)cc1`, which “activity, negative = inhibition” value is on record?
Answer: inactive: 5.92%

Question: How did the “activity, negative = inhibition” value turn out when `CCOC(=O)C1(Cc2ccccc2)CCN(Cc2csc(C(C)=O)c2)CC1` was run?
Answer: inactive: -23.3% [at 102 µM]

Question: Which Potency does the source give for `O=C(COc1ccc(Br)cc1)NC(=S)Nc1ccccc1N1CCOCC1` here?
Answer: inconclusive: 44.7 µM [inhibitor, partial curve, poor fit]

Question: How did the “activity, negative = inhibition” value turn out when `Cc1ccc(-n2c(=O)[nH]c3cc(C(=O)NCc4ccccc4)ccc3c2=O)cc1` was run?
Answer: inactive: -27.6%

Question: `COc1ccc(-c2cc(C#N)nc(N3CCNCC3)n2)cc1` was tested. Which Potency did it give?
Answer: inconclusive: 50.1 µM [inhibitor, partial curve]

Question: Which “activity, negative = inhibition” value does the source give for `Cc1cc(C(=O)Nc2ncn[nH]2)ccc1[N+](=O)[O-]` here?
Answer: inactive: -6.74%

Question: For `Oc1ccc(C2=NNC(=NCc3ccc4c(c3)OCO4)SC2)c(O)c1`, which Potency is on record?
Answer: inconclusive: 39.8 µM [inhibitor, single point]

Question: For `CC(=O)NCCN=Cc1sc2ccccc2c1O`, which activity, negative = inhibition is on record?
Answer: inactive: -6.35% [at 0.0925 µM]

Question: For `CCN(c1ccc(NC(=O)COC(=O)CCc2nc3ccccc3n2-c2ccccc2)cc1)C(C)C`, which Potency is on record?
Answer: active: 15.8 µM

Question: For `N#CC1=C(N)C2=CCCC[C@H]2[C@H](c2ccc(Br)cc2)C1(C#N)C#N`, which Potency is on record?
Answer: inconclusive: 17.8 µM [inhibitor, partial curve, poor fit]

Question: For `Cc1nn(Cc2ccccc2)c2c1C(c1ccc(Cl)cc1)C(C#N)=C(N)O2` (stereo unspecified), which Potency is on record?
Answer: inconclusive: 31.6 µM [inhibitor, single point]

Question: `C/C(N)=C(/C#N)C(=O)COC(=O)c1ccc(OCC2CCCO2)cc1` (stereo unspecified) was tested. Which Potency did it give?
Answer: inconclusive: 89.1 µM [inhibitor, single point]

Question: `Cc1ccc2nc(NC(=O)c3ccc(N4C(=O)CCC4=O)cc3)sc2c1` was tested. Which Potency did it give?
Answer: active: 11.2 µM

Question: With `NCCCCNCCCN` as the molecule, how does the Potency read?
Answer: inactive and active: 10.6 µM

Question: With `COc1ccc(/C=C/C(=O)CC(=O)/C=C/c2cccc(O)c2OC)cc1O` as the molecule, how does the Potency read?
Answer: inconclusive: 15.8 µM [inhibitor, partial curve, poor fit]

Question: For `CCC(C)NC(=O)C1CCN(CCCc2ccccc2)CC1` (stereo unspecified), which Potency is on record?
Answer: active: 14.1 µM

Question: With `FC(F)(F)c1ccccc1Nc1nccs1` as the molecule, how does the Potency read?
Answer: inconclusive: 8.91 µM [inhibitor, partial curve, poor fit]

Question: `COc1cc2ncc(C(=O)c3ccc(C)cc3)c(N3CCCCC3)c2cc1OC` was tested. Which Potency did it give?
Answer: active: 8.91 µM

Question: With `O=C(Cn1cc(S(=O)(=O)Cc2cccc(Cl)c2)c2ccccc21)Nc1ccccc1Cl` as the molecule, how does the “activity, negative = inhibition” value read?
Answer: inactive: -2.27%

Question: `CCCN1C(=O)/C(=C/c2ccc(C)s2)NC1=S` was tested. Which Potency did it give?
Answer: inconclusive: 7.94 µM [inhibitor, full curve]

Question: With `CCN(C(=S)NCCOC)c1cccc2ccccc12` as the molecule, how does the “activity, negative = inhibition” value read?
Answer: inactive: -47.6% [at 102 µM]

Question: Which “activity, negative = inhibition” value does the source give for `COc1cc(OC)cc(C(=O)N[C@H](C(=O)OCC(=O)c2ccc(F)cc2)C(C)C)c1` here?
Answer: inactive: 13.6% [at 102 µM]

Question: With `COc1ccc(CNCCC(c2ccc3c(c2)OCO3)c2ccccc2OC)cc1` (stereo unspecified) as the molecule, how does the Potency read?
Answer: inconclusive: 7.94 µM [inhibitor, partial curve]

Question: `COc1cc(OC)c2ccc(=O)oc2c1C(CCN1CCCCC1)c1ccc(N(C)C)cc1` (stereo unspecified) was tested. Which activity, negative = inhibition did it give?
Answer: inconclusive: -80.8% [inhibitor]

Question: For `CCN(CC)S(=O)(=O)c1cccc(NC(=O)COC(=O)/C=C/c2ccco2)c1`, which Potency is on record?
Answer: active: 15.8 µM

Question: For `CN(C)S(=O)(=O)c1cccc(NC(=S)NCc2ccc3c(c2)OCO3)c1`, which Potency is on record?
Answer: inconclusive: 79.4 µM [inhibitor, partial curve, poor fit]

Question: For `CCOC(=O)CNC(=S)N(Cc1ccco1)Cc1ccccc1Cl`, which Potency is on record?
Answer: inconclusive: 50.1 µM [inhibitor, partial curve, poor fit]

Question: Which Potency does the source give for `CSc1ncccc1C(=O)OCC(=O)N(C)c1c(N)n(Cc2ccccc2)c(=O)[nH]c1=O` here?
Answer: inconclusive: 89.1 µM [inhibitor, single point]

Question: `CC(=O)C1=C(C)OC(N)=C(C#N)C1c1ccncc1` (stereo unspecified) was tested. Which activity, negative = inhibition did it give?
Answer: inconclusive: -67.1% [inhibitor]

Question: With `CCOc1ccccc1NC(=O)/C=C/C(N)=O` as the molecule, how does the Potency read?
Answer: inconclusive: 39.8 µM [inhibitor, single point]

Question: How did the “activity, negative = inhibition” value turn out when `CSc1nc(Oc2cccc(C(F)(F)F)c2)cc(C(F)(F)F)n1` was run?
Answer: inactive: 46.8%

Question: Which Potency does the source give for `O=C(Nc1cccn(Cc2c(Cl)cccc2Cl)c1=O)c1c(Cl)cccc1Cl` here?
Answer: inconclusive: 10 µM [inhibitor, partial curve]

Question: For `O=C(Nc1ccc(Cl)cc1)N1CCCN(c2ccc(C(F)(F)F)cc2[N+](=O)[O-])CC1`, which “activity, negative = inhibition” value is on record?
Answer: inactive: -3.29% [at 102 µM]

Question: How did the Potency turn out when `CNC(=O)c1cc2c(ccc3ccccc32)oc1=N` was run?
Answer: inconclusive: 39.8 µM [inhibitor, single point]

Question: With `Cc1ccccc1/C(N)=N/OC(=O)N1c2ccccc2Sc2ccccc21` as the molecule, how does the Potency read?
Answer: inconclusive: 79.4 µM [inhibitor, single point]

Question: With `C[C@@H](NC(=O)OC(C)(C)C)c1nnc(S(=O)(=O)Cc2ccccc2)o1` as the molecule, how does the Potency read?
Answer: inconclusive: 56.2 µM [inhibitor, partial curve, poor fit]

Question: For `O=C(CCc1ccccc1)Nc1c(F)c(F)c(F)c(F)c1F`, which “activity, negative = inhibition” value is on record?
Answer: inactive: 37.4% [at 102 µM]

Question: `Cc1oc2ccc(O)c(CN3CCOCC3)c2c1C(=O)c1ccc(Cl)cc1` was tested. Which Potency did it give?
Answer: inconclusive: 0.708 µM [inhibitor, full curve, poor fit]

Question: `O=[N+]([O-])c1cccc(NC(=S)NCc2ccncc2)c1` was tested. Which Potency did it give?
Answer: active: 35.5 µM

Question: Which activity, negative = inhibition does the source give for `Cc1cccc(NC(=O)c2cccc3c2C(=O)c2ccccc2-3)c1` here?
Answer: inactive: -10.8% [at 0.0925 µM]

Question: `COc1ccc(CCNCC(O)COc2cccc(C(C)=O)c2)cc1OC` (stereo unspecified) was tested. Which “activity, negative = inhibition” value did it give?
Answer: inactive: 4.23% [at 102 µM]

Question: For `CC(C)(C)C(=O)/C=C(N)/C=C/c1ccccc1`, which Potency is on record?
Answer: inconclusive: 79.4 µM [inhibitor, single point]

Question: For `COc1cc(OC)c(C2=NOC(C(=O)N3CCCc4ccccc43)C2)cc1Cl` (stereo unspecified), which Potency is on record?
Answer: inconclusive: 39.8 µM [inhibitor, single point]

Question: `CCn1c(COc2cccc(C)c2)nnc1SCC(=O)Nc1cccc(C(=O)O)c1` was tested. Which Potency did it give?
Answer: inconclusive: 1 µM [inhibitor, full curve, poor fit]

Question: With `CCOC(=O)Nc1sc(=S)n(C)c1C` as the molecule, how does the Potency read?
Answer: active: 12.6 µM

Question: How did the Potency turn out when `O=[N+]([O-])c1cccnc1Oc1ccccc1F` was run?
Answer: inconclusive: 79.4 µM [inhibitor, partial curve]

Question: Which Potency does the source give for `COc1ccc(N2CCN(Cc3nc4c(c(=O)[nH]c(=O)n4C)n3CC(C)C)CC2)cc1` here?
Answer: active: 25.1 µM

Question: With `Cc1ccsc1/C=C1/NC(=O)N(Cc2ccc(F)cc2)C1=O` as the molecule, how does the Potency read?
Answer: inconclusive: 1.12 µM [inhibitor, partial curve, poor fit]

Question: With `O=C(CNC(=S)NC(=O)c1ccc(Br)o1)c1ccccc1` as the molecule, how does the “activity, negative = inhibition” value read?
Answer: inactive: -3.94%

Question: With `CCOC(=O)N1CCN(c2c(NCCCN3CCCCCC3)c(=O)c2=O)CC1` as the molecule, how does the Potency read?
Answer: inconclusive: 89.1 µM [inhibitor, single point]

Question: How did the Potency turn out when `CCC(Oc1ccccc1)C(=O)N(C)CC(=O)N(CC(C)C)c1c(N)n(CC(C)C)c(=O)[nH]c1=O` (stereo unspecified) was run?
Answer: inconclusive: 56.2 µM [inhibitor, single point]

Question: With `CCc1ccc(S(=O)(=O)c2cn(Cc3ccccc3F)c3cc(OC)c(OC)cc3c2=O)cc1` as the molecule, how does the “activity, negative = inhibition” value read?
Answer: inactive: -41.6%

Question: How did the Potency turn out when `Cc1c(C)c2ccc(O)c(CN3CCN(C)CC3)c2oc1=O` was run?
Answer: inconclusive: 89.1 µM [inhibitor, single point]

Question: `Cn1c(=O)c2c(nc(N3CCN(Cc4ccccc4)CC3)n2CCCc2ccccc2)n(C)c1=O` was tested. Which Potency did it give?
Answer: inconclusive: 70.8 µM [inhibitor, single point]

Question: How did the activity, negative = inhibition turn out when `CCC1SC(=NC(=O)c2ccc(Cl)c(Cl)c2)NC1=O` (stereo unspecified) was run?
Answer: inconclusive: -93.9% [inhibitor]

Question: With `CC(=O)c1ccc(NS(=O)(=O)c2ccc3[nH]c4c(c3c2)CCCC4)cc1` as the molecule, how does the Potency read?
Answer: inconclusive: 22.4 µM [inhibitor, single point]

Question: `CCCS(=O)(=O)N1CCN(Cc2ccccc2OCC)CC1` was tested. Which Potency did it give?
Answer: inconclusive: 39.8 µM [inhibitor, single point]

Question: Which Potency does the source give for `Cc1cc(Cl)cc2c1NC(=O)[C@]21[C@@H]2C(=O)N(Cc3ccccc3)C(=O)[C@@H]2[C@@H]2CCCN21` here?
Answer: inconclusive: 22.4 µM [inhibitor, single point] and inconclusive: 3.55 µM [inhibitor, single point]
